Assay results taken from the supplement of paper PMC8728848.
The other results are listed elsewhere or left out.

What was measured:
Assay in all cases: glycan array binding signal (z-score within array); higher = stronger binding
Details in all cases: glycan notation: IUPAC condensed, linker removed
[1] = target: Gal3S(b1-4)[Fuc(a1-3)]GlcNAc6S
In short: (§1)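 Glycan array binding is given as a within-array Z-score, which can be read as non-binding when negative. The arrays, 3228 of them, came from the Consortium for Functional Glycomics database and were retained only where the protein sequence was available. Z-scores were averaged across arrays of the same protein sequence at different concentrations or buffers and across linkers.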

Gal3S4S(b1-4)GlcNAc = target: Gal3S4S(b1-4)GlcNAc
In short: as §1

Gal3S6S(b1-4)GlcNAc = target: Gal3S6S(b1-4)GlcNAc
In short: as §1

Gal3S6S(b1-4)GlcNAc6S = target: Gal3S6S(b1-4)GlcNAc6S
In short: as §1

Gal4S(b1-4)GlcNAc = target: Gal4S(b1-4)GlcNAc
In short: as §1

Gal4S6S(b1-4)GlcNAc = target: Gal4S6S(b1-4)GlcNAc
In short: as §1

Gal6P(b1-4)GlcNAc = target: Gal6P(b1-4)GlcNAc
In short: as §1

Gal6S(b1-3)GlcNAc = target: Gal6S(b1-3)GlcNAc
In short: as §1

Gal6S(b1-3)GlcNAc6S = target: Gal6S(b1-3)GlcNAc6S
In short: as §1

Gal6S(b1-4)Glc = target: Gal6S(b1-4)Glc
In short: as §1

Gal6S(b1-4)Glc6S = target: Gal6S(b1-4)Glc6S
In short: as §1

Gal6S(b1-4)GlcNAc = target: Gal6S(b1-4)GlcNAc
In short: as §1

Gal6S(b1-4)GlcNAc6S = target: Gal6S(b1-4)GlcNAc6S
In short: as §1

GalNAc(a1-3)Gal = target: GalNAc(a1-3)Gal
In short: as §1

GalNAc(a1-3)GalNAc = target: GalNAc(a1-3)GalNAc
In short: as §1

[2] = target: GalNAc(a1-3)GalNAc(b1-3)Gal(a1-4)Gal(b1-4)Glc
In short: as §1

[3] = target: GalNAc(a1-3)GalNAc(b1-3)Gal(a1-4)Gal(b1-4)GlcNAc
In short: as §1

GalNAc(b1-3)Gal = target: GalNAc(b1-3)Gal
In short: as §1

[4] = target: GalNAc(b1-3)Gal(a1-4)Gal(b1-4)GlcNAc
In short: as §1

[5] = target: GalNAc(b1-3)Gal(a1-4)Gal(b1-4)GlcNAc(b1-3)Gal(b1-4)Glc
In short: as §1

[6] = target: GalNAc(b1-3)Gal(a1-6)Gal(b1-4)Glc
In short: as §1

GalNAc(b1-3)GalNAc = target: GalNAc(b1-3)GalNAc
In short: as §1

GalNAc(b1-3)GlcNAc = target: GalNAc(b1-3)GlcNAc
In short: as §1

GalNAc(b1-4)Gal(b1-4)Glc = target: GalNAc(b1-4)Gal(b1-4)Glc
In short: as §1

GalNAc(b1-4)GlcNAc = target: GalNAc(b1-4)GlcNAc
In short: as §1

[7] = target: GalNAc(b1-4)GlcNAc(b1-2)Man
In short: as §1

[8] = target: GalNAc(b1-4)GlcNAc(b1-2)Man(a1-3)[GalNAc(b1-4)GlcNAc(b1-2)Man(a1-6)]Man(b1-4)GlcNAc(b1-4)GlcNAc
In short: as §1

[9] = target: GalNAc(b1-4)GlcNAc(b1-3)GalNAc(b1-4)GlcNAc
In short: as §1

GalNAc(b1-4)GlcNAc6S = target: GalNAc(b1-4)GlcNAc6S
In short: as §1

GalNAc(b1-6)GalNAc = target: GalNAc(b1-6)GalNAc
In short: as §1

GalNAc3S(b1-4)GlcNAc = target: GalNAc3S(b1-4)GlcNAc
In short: as §1

GalNAc3S(b1-4)GlcNAc3S = target: GalNAc3S(b1-4)GlcNAc3S
In short: as §1

[10] = target: GalNAc3S(b1-4)[Fuc(a1-3)]GlcNAc
In short: as §1

GalNAc4S6S(b1-4)GlcNAc = target: GalNAc4S6S(b1-4)GlcNAc
In short: as §1

GalNAc6S(b1-4)GlcNAc = target: GalNAc6S(b1-4)GlcNAc
In short: as §1

Glc(a1-4)Glc = target: Glc(a1-4)Glc
In short: as §1

[11] = target: Glc(a1-4)Glc(a1-4)Glc(a1-4)Glc
In short: as §1

Glc(a1-6)Glc(a1-6)Glc = target: Glc(a1-6)Glc(a1-6)Glc
In short: as §1

B1: rAAL-2 (Agrocybe aegerita) (protein)
chain: MTSNVITQDLPIPVASRGFADIVGFGLDGVVIGRNAVNLQPFLAVKNFAQNAGGWLTTKHVRLIADTTGTGKGDIVGFGNAGVYVSVNNGKNTFADPPKMVIANFGYDAGGWRVEKHLRYLADIRKIGRADIIGFGEKGVLVSRNNGGLNFGPATLVLKDFGYDAGGWRLDRHLRFLADVTGNGHLDIVGFGDKHVFISRNNGDGTFAPAKSVIDNFCIDAGGWKIGDHPRFVADLTGDGTADIIGCGKAGCWVALNNGGGVFGQVKLVINDFGTDKGWQAAKHPRFIADLTGNGRGDVVGFGNAGVYVALNNGDGTFQSAKLVLKDFGVQQGWTVSKHRRFVVDLTGDGCADIIGFGEKETLVSYNDGKGNFGPVKALTNDFSFSGGKWAPETTVCWMANLDSSRH
In the case of B1, the “glycan array binding signal (z-score)” value [1] is reported as -0.567, the “glycan array binding signal (z-score)” value (Gal3S4S(b1-4)GlcNAc) is reported as -0.379 and the “glycan array binding signal (z-score)” value (Gal3S6S(b1-4)GlcNAc) is reported as -0.303. For the same binder, the “glycan array binding signal (z-score)” value (Gal3S6S(b1-4)GlcNAc6S) was -0.286, the “glycan array binding signal (z-score)” value (Gal4S(b1-4)GlcNAc) was -0.445 and the “glycan array binding signal (z-score)” value (Gal4S6S(b1-4)GlcNAc) was 0.033. The “glycan array binding signal (z-score)” value (Gal6P(b1-4)GlcNAc) was -0.19, the “glycan array binding signal (z-score)” value (Gal6S(b1-3)GlcNAc) was -0.369 and the “glycan array binding signal (z-score)” value (Gal6S(b1-3)GlcNAc6S) was -0.163. The “glycan array binding signal (z-score)” value (Gal6S(b1-4)Glc) was -0.307, the “glycan array binding signal (z-score)” value (Gal6S(b1-4)Glc6S) was -0.233 and the “glycan array binding signal (z-score)” value (Gal6S(b1-4)GlcNAc) was -0.28. The “glycan array binding signal (z-score)” value (Gal6S(b1-4)GlcNAc6S) was -0.307, the “glycan array binding signal (z-score)” value (GalNAc(a1-3)Gal) was -0.294 and the “glycan array binding signal (z-score)” value (GalNAc(a1-3)GalNAc) was -0.36. The “glycan array binding signal (z-score)” value [2] was -0.017, the “glycan array binding signal (z-score)” value [3] was 0.074 and the “glycan array binding signal (z-score)” value (GalNAc(b1-3)Gal) was -0.347. The “glycan array binding signal (z-score)” value [4] was -0.161, the “glycan array binding signal (z-score)” value [5] was -0.223 and the “glycan array binding signal (z-score)” value [6] was -0.194. The “glycan array binding signal (z-score)” value (GalNAc(b1-3)GalNAc) was 1.36, the “glycan array binding signal (z-score)” value (GalNAc(b1-3)GlcNAc) was -0.485 and the “glycan array binding signal (z-score)” value (GalNAc(b1-4)Gal(b1-4)Glc) was -0.208. The “glycan array binding signal (z-score)” value (GalNAc(b1-4)GlcNAc) was -0.32, the “glycan array binding signal (z-score)” value [7] was -0.333 and the “glycan array binding signal (z-score)” value [8] was 0.093. The “glycan array binding signal (z-score)” value [9] was -0.584, the “glycan array binding signal (z-score)” value (GalNAc(b1-4)GlcNAc6S) was -0.107 and the “glycan array binding signal (z-score)” value (GalNAc(b1-6)GalNAc) was -0.316. For the same binder, the “glycan array binding signal (z-score)” value (GalNAc3S(b1-4)GlcNAc) was -0.228, the “glycan array binding signal (z-score)” value (GalNAc3S(b1-4)GlcNAc3S) was -0.436 and the “glycan array binding signal (z-score)” value [10] was -0.279. For the same binder, the “glycan array binding signal (z-score)” value (GalNAc4S6S(b1-4)GlcNAc) was 0, the “glycan array binding signal (z-score)” value (GalNAc6S(b1-4)GlcNAc) was -0.529 and the “glycan array binding signal (z-score)” value (Glc(a1-4)Glc) was -0.269. For the same binder, the “glycan array binding signal (z-score)” value [11] was -0.276 and the “glycan array binding signal (z-score)” value (Glc(a1-6)Glc(a1-6)Glc) was -0.139.
